Hit rate of the full screen: of about 48,000 compounds, about 1,200 (2.5%) were called active. Inconclusive results (about 2%) are left out.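 How the source made its calls: active means activation of at least 60% and not above a set upper limit (about 1 call in 100 departs from these limits); inconclusive means activation of 40% to 60%, or above that upper limit; inactive means activation under 40%.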 Some of the results follow.
Molecular target: Probable G-protein coupled receptor 32 (Homo sapiens) (UniProt O75388)
Experiment: qHTS for Agonists of Human Resolvin D1 Receptor DRV1; further: 0% is about no effect
Conditions: CHO-K1 GPR32 beta-arrestin PathHunter luminescence, 90 min; at 76.9 µM; stronger effect = higher value; zero percent set by DMSO-only wells
How it was run: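 Luminescent readout of beta-Gal complementation quantifies ligand-induced beta-arrestin association with GPR32 in CHO-K1 cells; 90 min compound incubation at 37 °C, detection 1 h at room temperature.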

UniProt O75388, sequence (O75388 whole entry, looked up): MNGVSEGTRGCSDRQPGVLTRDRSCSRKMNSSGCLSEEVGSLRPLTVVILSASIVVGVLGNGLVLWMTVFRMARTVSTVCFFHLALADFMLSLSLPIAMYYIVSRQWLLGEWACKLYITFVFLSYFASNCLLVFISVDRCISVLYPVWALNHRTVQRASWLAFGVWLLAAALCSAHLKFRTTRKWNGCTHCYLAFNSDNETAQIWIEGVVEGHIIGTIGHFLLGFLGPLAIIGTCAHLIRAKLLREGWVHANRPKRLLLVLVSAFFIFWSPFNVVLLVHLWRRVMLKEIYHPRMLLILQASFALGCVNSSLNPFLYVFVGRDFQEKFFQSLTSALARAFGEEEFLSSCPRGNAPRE

**Q.** COc1ccccc1N1CCN(c2ncnc3c2nnn3C)CC1 was tested. Which activation did it give?
**A.** inactive: -0.452%

**Q.** For Cc1ccc(C)c(NC(=O)CN2CCSc3ccc(S(=O)(=O)N4CCCC4)cc32)c1, which activation is on record?
**A.** inactive: 8.72%

**Q.** For CCOC(=O)c1oc2ccc(S(=O)(=O)n3nc(-c4ccc(C)cc4)cc3N)cc2c1C, which activation is on record?
**A.** inactive: -0.858%

**Q.** COc1ccc(NC(=O)C2CCN(S(=O)(=O)c3cccc(-c4noc(C)n4)c3)CC2)cc1OC was tested. Which activation did it give?
**A.** inactive: 17.4%

**Q.** With CC(C)c1ccc(S(=O)(=O)N2CCC(n3c(C(F)(F)F)nc4cccnc43)CC2)cc1 as the compound, how does the activation read?
**A.** inactive: -1.51%

**Q.** For CC(C)c1ccc(CN(C(=O)c2cc3ccccc3oc2=O)C2CCS(=O)(=O)C2)cc1 (stereo not drawn), which activation is on record?
**A.** inactive: -13%

**Q.** CCOCCn1ccc2c(OCC(=O)Nc3ccc(C(N)=O)cc3)cccc2c1=O was tested. Which activation did it give?
**A.** inactive: 11.1%

**Q.** With COc1ccc(C2NC(=O)N(C)C3=C2C(=O)N(c2ccc(Br)cc2)C3)cc1 (stereo not drawn) as the compound, how does the activation read?
**A.** inactive: -17.2%

**Q.** How did the activation turn out when CC(NC(=O)C1CCN(S(=O)(=O)Cc2ccccc2)CC1)c1ccccc1 (stereo not drawn) was run?
**A.** inactive: -4.01%

**Q.** For COc1cccc2sc(N(Cc3cccnc3)C(=O)c3ccc4c(c3)OCCO4)nc12, which activation is on record?
**A.** inactive: -17%

**Q.** Which activation does the source give for COC(=O)c1cc2occc2n1Cc1nc(-c2ccccc2)oc1C here?
**A.** inactive: -25.3%

**Q.** How did the activation turn out when Cc1cc(S(=O)(=O)N2CCN(Cc3noc(CCC(=O)N4CCCCC4)n3)CC2)ccc1F was run?
**A.** inactive: -11%

**Q.** CCCc1nn2c(=O)cc(COC(=O)c3ccc(NC(=O)COc4ccc(F)cc4)cc3)nc2s1 was tested. Which activation did it give?
**A.** inactive: -12.3%

**Q.** With CN(C)c1ccc(CNC(=O)C2CCN(c3nc4ccccc4[nH]3)CC2)cc1 as the compound, how does the activation read?
**A.** inactive: -4.49%

**Q.** With COC(=O)c1c(NC(=O)c2ccc(S(=O)(=O)N3CCC(C)CC3)cc2)sc2c1CCN(C)C2 as the compound, how does the activation read?
**A.** inactive: -34.3%

**Q.** Which activation does the source give for Cc1ccccc1CNC(=O)c1cnc2sc(N3CCC(C)CC3)nn2c1=O here?
**A.** inactive: 4.16%

**Q.** Which activation does the source give for COc1cc2ccccc2cc1C(=O)Nc1cccc(-c2nc3cc(C)c(C)cc3o2)c1 here?
**A.** inactive: -2.01%

**Q.** With CN(C(=O)CSc1nnc(NC(=O)Nc2ccccc2)s1)c1ccccc1 as the compound, how does the activation read?
**A.** inactive: -7.36%

**Q.** With Cc1cc(C)c(NC(=O)C2CCN(c3nc4ccccc4n4cccc34)CC2)c(C)c1 as the compound, how does the activation read?
**A.** inactive: -30.9%

**Q.** With Brc1cccc(-c2nnn3c2nc(NCc2ccc4c(c2)OCO4)c2ccccc23)c1 as the compound, how does the activation read?
**A.** inactive: -1.46%

**Q.** With COc1ccc(-n2ncc(C(=O)NCc3ccco3)c2C2CCN(C(=O)OC(C)(C)C)CC2)cc1 as the compound, how does the activation read?
**A.** inactive: -13.3%

**Q.** With CC(C)NC(=O)C1CCC(Cn2c(=O)c3sccc3n(Cc3ccc(F)cc3)c2=O)CC1 (stereo not drawn) as the compound, how does the activation read?
**A.** inactive: 3.38%

**Q.** O=C(NCC(c1cccnc1)N1CCc2ccccc21)c1cccc(Br)c1 (stereo not drawn) was tested. Which activation did it give?
**A.** inactive: -24.9%

**Q.** Which activation does the source give for COC(=O)c1c(-c2ccc(Cl)cc2)noc1N1CCN(c2cc(C)ccc2C)CC1 here?
**A.** inactive: 0.0072%

**Q.** How did the activation turn out when COc1cccc(NC(=O)C2CCCN(S(=O)(=O)c3cn(C(C)C)cn3)C2)c1 (stereo not drawn) was run?
**A.** inactive: 0.451%

**Q.** For CCOc1ccc(CCNC(=O)c2cc3cccc4c3n2CCS4)cc1, which activation is on record?
**A.** inactive: -11.1%

**Q.** With Cc1ccc(NC(=O)/C(C#N)=C/c2ccc(-c3ccc(Cl)c(C(=O)O)c3)o2)cc1C as the compound, how does the activation read?
**A.** inactive: -2.85%

**Q.** How did the activation turn out when CCOc1cccc(NC(=O)C2CC(=O)N(CC)C(=Nc3ccc(F)cc3)S2)c1 (stereo not drawn) was run?
**A.** active: 80.5%

**Q.** Which activation does the source give for O=C1CS(=O)(=O)C2(C(=O)N(Cc3ccccc3Cl)c3ccccc32)N1c1ccc(F)cc1 (stereo not drawn) here?
**A.** inactive: -6.4%

**Q.** With COc1ccc(Cn2c(C(=O)O)c(CNCCc3ccco3)c3ccc(OC)cc32)cc1 as the compound, how does the activation read?
**A.** inactive: 0.931%

**Q.** With CC(C)(C)c1ccc(/C=C/C(=O)Nc2ccc(S(N)(=O)=O)cc2)cc1 as the compound, how does the activation read?
**A.** active: 94.2%

**Q.** With CCCNC(=O)Cn1c(=O)n(CC2CCC(C(=O)NC)CC2)c(=O)c2sccc21 (stereo not drawn) as the compound, how does the activation read?
**A.** inactive: 5.4%

**Q.** For CCN(CC)S(=O)(=O)c1ccc2c(c1)N(CC(=O)Nc1ccccc1F)C(=O)C1CCCN21 (stereo not drawn), which activation is on record?
**A.** inactive: -35.8%

**Q.** How did the activation turn out when CCCC(=O)N(c1ccc2oc(C)c(C(C)=O)c2c1)S(=O)(=O)c1ccc(CC)cc1 was run?
**A.** inactive: 3.43%

**Q.** Which activation does the source give for NCCNCCNCCNCCN here?
**A.** inactive: 13.2%

**Q.** Which activation does the source give for COc1ccc(N2CCN(c3ncnc4c3cnn4C)CC2)cc1 here?
**A.** inactive: 10.4%

**Q.** How did the activation turn out when Cc1cccc(C(=O)Nc2ccc(S(=O)(=O)N3CCC(c4nc5ccccc5s4)CC3)cc2)c1 was run?
**A.** inactive: 3.97%

**Q.** CCC(C)(C)NC(=O)C1CCN(S(=O)(=O)c2ccc3c(c2)CCCN3C(C)=O)CC1 was tested. Which activation did it give?
**A.** inactive: -6.07%

**Q.** C=Cc1ccc(Cn2c(C(=O)O)c(CNCc3ccc(F)cc3)c3ccc(C)cc32)cc1 was tested. Which activation did it give?
**A.** active: 90.9%

**Q.** Which activation does the source give for Cc1cc(C)c(NC(=O)CSc2ncc3c(n2)-c2cc(Cl)ccc2N(C)S3(=O)=O)c(C)c1 here?
**A.** inactive: -7.42%

**Q.** With COCCCNC(=O)c1cc2cc(S(=O)(=O)N3CCCCC3)ccc2n1C as the compound, how does the activation read?
**A.** inactive: -3.36%

**Q.** Which activation does the source give for COc1ccc(C2c3cc(OC)c(OC)cc3CC(=O)N2c2ccc(C)cc2)cc1 (stereo not drawn) here?
**A.** inactive: -5.93%

**Q.** For CCCC(=O)Nc1nnc(S(=O)(=O)N(C)Cc2ccc(Cl)cc2)s1, which activation is on record?
**A.** inactive: -10.6%

From PubChem BioAssay AID1346428 (National Center for Advancing Translational Sciences (NCATS), 2018)
